Source: PubChem BioAssay AID1508624 (National Center for Advancing Translational Sciences (NCATS), 2021)
Among all 48,000 compounds or so, about 120 (0.25%) were called active. Roughly 4% stayed inconclusive and do not appear here. Calls come from the whole dose curve; as a rule, active = well fitted activation curve with a large enough effect; inconclusive = small, poorly fitted or top-dose-only effect, or another doubt; inactive = no such curve, though single readings can be large or run the other way. The list shows a part of the results.

experiment: Primary qHTS for Identification of Small Molecule Activators of Huntingtin-Antisense Promoter Activity; settings: HEK293 HTT-AS promoter firefly luciferase reporter, 24 h; series mostly up to 57.5 µM; activity change, positive = activation: at the top concentration; note: nearly all actives have a fitted effect of over 55% in size
In short: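 Firefly luciferase readout (Dual-Glo, 10 min RT) after 24 h, 37 °C compound exposure (final up to 57.5 uM) of HEK293 reporter cells cultured 24 h beforehand; PTC124 at 50 uM final as control inhibitor; activity scaled vehicle 0%, zero RLU -100%.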

| Compound | activity change, positive = activation |
| --- | --- |
| Cn1c2c(c(=O)n(C)c1=O)C(c1ccccc1C(F)(F)F)CC(=O)N2 (centres undefined) | inactive: -14.1% |
| CCNC(=O)CC1C(=O)N(c2ccc(F)cc2)C(=O)N1Cc1ccc(OC)c(OC)c1 (centres undefined) | inactive: -7.93% |
| Cc1ccc(C(=O)N2CCN(c3cccc(Cl)c3)CC2)cc1-n1c(C)nc2cccnc21 | inactive: -20% |
| O=C(c1ccc2c(c1)N(Cc1cccc(Cl)c1)C(=O)c1ccccc1S2(=O)=O)N1CCc2ccccc21 | inactive: -22.4% |
| CCc1ccccc1N(CC)C(=O)C(=O)Nc1ccc2nc3n(c(=O)c2c1)CCCCC3 | inactive: -17.8% |
| COc1cc(Cl)c(C)cc1NC(=O)C1CCCN(c2ncnc3onc(-c4ccc(F)cc4)c23)C1 (centres undefined) | inactive: -23% |
| COc1ccc(-n2c(SC)nc3sc4c(c3c2=O)CCN(C(C)=O)C4)cc1 | inactive: -12.6% |
| FC(F)(F)c1cccc(N2CCN(c3nc4ccccc4n4cnnc34)CC2)c1 | inactive: -34.3% |
| Cc1ccc(NC(=O)CSc2nnc(-c3cc4occc4n3C)n2-c2ccccc2C)c(C)c1 | inactive: -35.9% |
| COc1ccc(CNC(=O)C2CCN(C(=O)c3cnn(-c4ccccc4)c3-n3cccc3)CC2)cc1 | inactive: -43.8% |
| c1ccc(-c2ccc(C(c3ccccc3)n3ccnc3)cc2)cc1 (centres undefined) | inactive: -8.33% |
| Oc1c(Cl)cc(Cl)c2cccnc12 | inactive |
| Cc1ccc2c(c1)N(C(=O)Nc1ccc(Br)cc1F)CCO2 | inactive: -10.3% |
| Cc1ccn2c(=O)cc(COc3ccc(NC(=O)C(C)(C)C)cc3)nc2c1 | inactive: -4.44% |
| COC(=O)c1ccccc1NC(=O)CSc1n[nH]c(C)n1 | inactive: 6.43% |
| CCS(=O)(=O)N1CCc2cc(C(=O)NC(C)c3ccccc3)ccc21 (centres undefined) | inactive: -8.72% |
| CC(C)Oc1ccc(CNC(=O)CN2C(=O)c3cccnc3Oc3ccc(Cl)cc32)cc1 | inactive: -30.7% |
| O=c1c2sc3ccccc3c2n(Cc2cccc(C(F)(F)F)c2)c(=O)n1-c1ccccc1 | inactive: -29.1% |
| CCCCN(C)CCNC(=O)c1cc(=O)[nH]c2ccc(S(=O)(=O)N3CCCCCC3)cc12 | inactive: 0% |
| Cc1cc(NC(=O)c2ccc(-c3ccc(Cl)cc3)o2)cc(-c2nc3ncccc3o2)c1O | inactive: -3.55% |

| Compound | activity change, positive = activation |
| --- | --- |
| Cc1ccc(CNC(=O)c2cnc(N(C)C)nc2)cc1 | inactive: -8.01% |
| COc1ccc(NC(=O)c2oc3ccccc3c2NC(=O)c2cc(=O)c3c(C)cc(C)cc3o2)cc1 | inactive: -1.79% |
| Cc1nc(-n2nc(C)c(Cc3ccccc3Cl)c2C)sc1C(=O)N1CCCCC1C (centres undefined) | inactive: -11.6% |
| COc1ccc(-c2nc(C(=O)Nc3cccc(C(C)=O)c3)nn2-c2ccc(Cl)cc2)cc1 | inactive: -14.4% |
| O=S(=O)(c1ccc2ccccc2c1)n1nc(-c2ccco2)nc1NCc1ccc(F)cc1 | inactive: -8.11% |
| Cc1cc(NC(=O)CCCn2c(C)c3cnn(-c4ccccc4)c(=O)c3c2C)ccc1Br | inactive: -32.8% |
| CCOc1ccccc1NC(=O)CN1C(=O)CC(c2ccco2)Sc2ccccc21 (centres undefined) | inactive: -41% |
| Cc1cc(C)cc(C(=O)N(Cc2nc(-c3ccc(Cl)cc3)no2)C(C)C)c1 | inactive: -25.1% |
| COCCNC(=O)C(=O)NCC(c1ccc2c(c1)OCO2)N1CCOCC1 (centres undefined) | inactive: -10.7% |
| COC(=O)c1ccc(OCC(O)Cn2cnc3cc(C)c(C)cc32)cc1 (centres undefined) | inactive: -10.4% |
| CCN(C(=O)CSc1ncc(S(=O)(=O)c2ccc(C)c(Cl)c2)c(=O)[nH]1)c1cccc(C)c1 | inactive: -13.8% |
| COCCCNC(=O)c1cc2n(n1)CCCN(Cc1ccc(C)cc1)C2=O | inactive: 3.98% |
| CC(=O)SC[C@@H](C)C(=O)N1CCC[C@H]1C(=O)N[C@@H](Cc1ccccc1)C(=O)O | inactive: -7.32% |
| CC[C@H](C)[C@H](N)C(=O)O | inactive: 1.66% |
| COc1ccc(OC)c(NC(=O)c2cc3c(s2)-c2ccccc2SC3)c1 | inactive: 7.99% |
| Cc1c(NS(=O)(=O)c2cccc(C(=O)O)c2)c(=O)n(-c2ccccc2)n1C | inactive: 11.5% |
| COc1ccccc1-c1c(C)nn2c(N3CCN(c4cccc(Cl)c4)CC3)cc(C)nc12 | inactive: -12.5% |
| O=C(CSc1nnc(CNC(=O)c2c(F)cccc2Cl)o1)Nc1ccccc1F | inactive: -2.19% |
| CCC(=O)N1c2ccccc2CC1C(=O)NCc1ccccc1C (centres undefined) | inactive: -6.47% |
| CS(=O)(=O)c1ncc(N(Cc2ccco2)Cc2ccco2)c(C(=O)Nc2ccccc2Br)n1 | inactive: -22.7% |

| Compound | activity change, positive = activation |
| --- | --- |
| Cc1ccc(-n2ncc(C(=O)NC3CCCC3)c2C2CCN(C(=O)OC(C)(C)C)CC2)c(C)c1 | inactive: -17% |
| CC1=C(C(=O)OCc2ccc(C)cc2)C(c2c(Cl)cccc2Cl)CC(=O)N1 (centres undefined) | inactive: -20.8% |
| Cc1ccc(C)c(NS(=O)(=O)c2ccc3c4c(cccc24)C(=O)N3)c1 | inactive: -65.1% |
| CNc1nc(Oc2ccc(=O)n(C)n2)nc(N2CCOCC2)n1 | inactive: -1.16% |
| COc1cccc(Cn2nnc3c(=O)[nH]c(C4CCCN(C(=O)c5ccc(C)cc5)C4)nc32)c1 (centres undefined) | inactive: -28.7% |
| NC(=O)[C@@H]1CSSCCC(=O)N[C@@H](CCCCN=C(N)N)C(=O)NCC(=O)N[C@@H](CC(=O)O)C(=O)N[C@@H](Cc2c[nH]c3ccccc23)C(=O)N2CCC[C@H]2C(=O)N1 | inactive: 0.284% |
| CCOc1ccccc1NC(=O)CC1C(=O)NCCN1C(=O)c1ccc(F)cc1 (centres undefined) | inactive: -4.12% |
| COc1ccc(OC)c(Nc2nc3ccccc3n3c(C)nnc23)c1 | inactive: -4.36% |
| COc1ccc(-c2nc(CN3CCC(C(=O)NCCCN4CCN(c5ccccc5F)CC4)CC3)c(C)o2)cc1OC | inactive: -13.9% |
| O=C(Nc1cc(-c2nc3cc(Cl)ccc3o2)ccc1Cl)c1cccs1 | inactive: -5.43% |
| COc1ccc(COC(=O)c2[nH]c3c(c2C)C(=O)CC(c2ccc(OC)c(OC)c2)C3)cc1 (centres undefined) | inactive: -74% |
| C#CC(C)(CC)NC(=O)Cn1nnc(-c2ccc(OCc3ccccc3F)cc2)n1 (centres undefined) | inactive: -12.7% |
| CN(C1CCCCC1)S(=O)(=O)c1ccc2c(c1)c(=O)c(C(=O)NCCc1ccc(Cl)cc1)cn2C | inactive: 3.19% |
| CSCCC(NS(=O)(=O)c1ccc2c(c1)oc(=O)n2C)C(=O)NCCc1ccc(C)cc1 (centres undefined) | inactive: -9.45% |
| Cc1ccc(-c2nnc(Nc3cccc(Cl)c3)c3ccccc23)cc1S(=O)(=O)NCC1CCCO1 (centres undefined) | inactive: -2.26% [at 11.5 µM, percent change from vehicle, -100% = no light] |
| CCS(=O)(=O)N1CCC(C(=O)NCCC(C)C)CC1 | inactive: -4.82% |
| COc1cccc(OCCCCn2c(-c3ccc(Cl)cc3)nc3ccccc3c2=O)c1 | inactive: -13.4% |
| Cc1ccc(-c2onc(C)c2C)cc1S(=O)(=O)NCc1ccco1 | inactive: -24.4% |
| O=S(=O)(NCCSc1nnnn1-c1ccccc1)c1ccc(F)cc1 | inactive: -16.8% |
